Assay results: the RNAGym collection of RNA variant scans (doi:10.1073/pnas.2313332121)
This sample is rich in variants without activity.

B1: TPR 5TU (parent)
chain: GGAUCUUCUCGAUCUAACAAAAAAGACAAAUCUGCCACAAAGCUUGAGAGCAUCUUCGGAUGCAGAGGCGGCAGCCUUCGGUGGCGCGAUAGCGCCAACGUUCUCAACUAUGACACGCAAAACGCGUGCUCCGUUGAAUGGAGUUUAUCAUG

Variants of: B1
Assay: polymerase ribozyme fitness, log enrichment relative to wild type (log ratio); higher = more active; in vitro selection for triplet polymerase activity
Outline: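 A single round of triplicate in vitro selection, including frozen incubation at −7 °C, was applied to PCR-built, transcribed mutant libraries of each subunit of a heterodimeric triplet polymerase ribozyme. Illumina sequencing of input and output libraries retained genotypes with ≥10 input reads and ≥1 read per output. Fitness is the base-2 logarithm of genotype enrichment divided by wild-type enrichment, from inverse-variance-weighted replicate averages.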

Q: For A49C U90G, which “polymerase ribozyme fitness (log ratio)” value is on record?
A: Its value is ≤ -4.2.

Q: For A49C G50U G94U C96U C116A, which “polymerase ribozyme fitness (log ratio)” value is on record?
A: The value was ≤ -4.2.

Q: Which “polymerase ribozyme fitness (log ratio)” value does the source give for A49G C75A G83A A106U U144A here?
A: The value was ≤ -4.2.

Q: For A49G G68U G133A, which “polymerase ribozyme fitness (log ratio)” value is on record?
A: The value was ≤ -4.2.

Q: Which “polymerase ribozyme fitness (log ratio)” value does the source give for A49C U56A A66C G84U U111G here?
A: Its value is ≤ -4.2.

Q: With A49C C85A C95U A106G C108G A142U as the variant, how does the “polymerase ribozyme fitness (log ratio)” value read?
A: Its value is ≤ -4.2.

Q: With A49C C57G A66U G84A G88C A119C G140A as the variant, how does the “polymerase ribozyme fitness (log ratio)” value read?
A: Its value is ≤ -4.2.

Q: Which “polymerase ribozyme fitness (log ratio)” value does the source give for A49C C57U C93U G100A A106U G140C here?
A: The value was ≤ -4.2.

Q: With A49G C57U C99G C114U A120C G143U as the variant, how does the “polymerase ribozyme fitness (log ratio)” value read?
A: Its value is ≤ -4.2.

Q: For G50A A91G C99U C103G, which “polymerase ribozyme fitness (log ratio)” value is on record?
A: The value was ≤ -4.2.

Q: With G50A C51U U55A G84A C87A C93A C108U G140C U146C as the variant, how does the “polymerase ribozyme fitness (log ratio)” value read?
A: Its value is ≤ -4.2.

Q: With A49G U56A A64C C108A C149A as the variant, how does the “polymerase ribozyme fitness (log ratio)” value read?
A: Its value is ≤ -4.2.

Q: With A49C G124U as the variant, how does the “polymerase ribozyme fitness (log ratio)” value read?
A: The value was ≤ -4.2.

Q: For A49U C93A C95A C129A, which “polymerase ribozyme fitness (log ratio)” value is on record?
A: The value was ≤ -4.2.

Q: For A49C U53A C75G A89U C93G G128C, which “polymerase ribozyme fitness (log ratio)” value is on record?
A: The value was ≤ -4.2.

Q: With A49U C85G A115C as the variant, how does the “polymerase ribozyme fitness (log ratio)” value read?
A: The value was -3.64.

Q: For A49U G59A A122U, which “polymerase ribozyme fitness (log ratio)” value is on record?
A: The value was -0.783.

Q: Which “polymerase ribozyme fitness (log ratio)” value does the source give for A49C C69G C75A C76U A137C U139C here?
A: Its value is ≤ -4.2.

Q: Which “polymerase ribozyme fitness (log ratio)” value does the source give for G48U U56A G67A A73C G86U A107G here?
A: Its value is ≤ -4.2.

Q: With G50A C54A C75U G86A A91C G136U as the variant, how does the “polymerase ribozyme fitness (log ratio)” value read?
A: The value was ≤ -4.2.

Q: With G50A A73U A113U as the variant, how does the “polymerase ribozyme fitness (log ratio)” value read?
A: The value was ≤ -4.2.

Q: With A49C C72A C108A U135G as the variant, how does the “polymerase ribozyme fitness (log ratio)” value read?
A: Its value is ≤ -4.2.

Q: For G50A A98U G126A, which “polymerase ribozyme fitness (log ratio)” value is on record?
A: The value was -1.26.

Q: Which “polymerase ribozyme fitness (log ratio)” value does the source give for A49U C51A G58C G88U C95G A107G G124A here?
A: The value was ≤ -4.2.

Q: Which “polymerase ribozyme fitness (log ratio)” value does the source give for A49C C54A A91G here?
A: The value was ≤ -4.2.

Q: For A49C G84A C93G, which “polymerase ribozyme fitness (log ratio)” value is on record?
A: Its value is ≤ -4.2.

Q: Which “polymerase ribozyme fitness (log ratio)” value does the source give for G48U U134G here?
A: Its value is -2.34.

Q: Which “polymerase ribozyme fitness (log ratio)” value does the source give for A49C A142C U146A here?
A: The value was ≤ -4.2.

Q: With A49C A64U C75U C76U U135G as the variant, how does the “polymerase ribozyme fitness (log ratio)” value read?
A: The value was ≤ -4.2.

Q: For A49G C79G G80U U90G A91U U146G, which “polymerase ribozyme fitness (log ratio)” value is on record?
A: The value was ≤ -4.2.

Q: With A49G G59A C72A C85G as the variant, how does the “polymerase ribozyme fitness (log ratio)” value read?
A: Its value is ≤ -4.2.

Q: With A49C C51A C99U C132G as the variant, how does the “polymerase ribozyme fitness (log ratio)” value read?
A: Its value is ≤ -4.2.

Q: With G50A as the variant, how does the “polymerase ribozyme fitness (log ratio)” value read?
A: The value was -1.02.

Q: For A49U C93A, which “polymerase ribozyme fitness (log ratio)” value is on record?
A: Its value is -3.3.

Q: With A49U C93U as the variant, how does the “polymerase ribozyme fitness (log ratio)” value read?
A: Its value is -1.38.

Q: Which “polymerase ribozyme fitness (log ratio)” value does the source give for A49C C96A C105A U111G here?
A: Its value is ≤ -4.2.

Q: With A49G C57G C76A C96A as the variant, how does the “polymerase ribozyme fitness (log ratio)” value read?
A: The value was ≤ -4.2.

Q: With A49G G68A G94A G128A U130C U146G A150U as the variant, how does the “polymerase ribozyme fitness (log ratio)” value read?
A: The value was ≤ -4.2.

Q: Which “polymerase ribozyme fitness (log ratio)” value does the source give for A49G C54U C76U G84A A122U U145G here?
A: The value was ≤ -4.2.

Q: For A49C A64U C87A U104G G143A, which “polymerase ribozyme fitness (log ratio)” value is on record?
A: Its value is ≤ -4.2.

Q: For A49C C51U G68U G94C A119G A121U, which “polymerase ribozyme fitness (log ratio)” value is on record?
A: The value was ≤ -4.2.

Q: For A49G A52C U53A U55A C69A, which “polymerase ribozyme fitness (log ratio)” value is on record?
A: The value was ≤ -4.2.

Q: Which “polymerase ribozyme fitness (log ratio)” value does the source give for A49C A52G G58C G84A C131G G133C U145A here?
A: Its value is ≤ -4.2.

Q: For A49C C75U C118U, which “polymerase ribozyme fitness (log ratio)” value is on record?
A: The value was ≤ -4.2.

Q: For A49C C85G G88A A106U G141C U144G, which “polymerase ribozyme fitness (log ratio)” value is on record?
A: Its value is ≤ -4.2.

Q: With G50A A66C C69G G84U G88A as the variant, how does the “polymerase ribozyme fitness (log ratio)” value read?
A: The value was ≤ -4.2.

Q: With A49G G74A C76G U77G C85U G112U as the variant, how does the “polymerase ribozyme fitness (log ratio)” value read?
A: The value was ≤ -4.2.

Q: For A49G C96A C103A A142C G152U, which “polymerase ribozyme fitness (log ratio)” value is on record?
A: Its value is ≤ -4.2.

Q: With G48U G86U C87U C132G A137C as the variant, how does the “polymerase ribozyme fitness (log ratio)” value read?
A: The value was ≤ -4.2.

Q: Which “polymerase ribozyme fitness (log ratio)” value does the source give for A49G G88C U90A here?
A: Its value is ≤ -4.2.

Q: Which “polymerase ribozyme fitness (log ratio)” value does the source give for A49C C75A U102G G117U here?
A: Its value is ≤ -4.2.

Q: Which “polymerase ribozyme fitness (log ratio)” value does the source give for G50A A64C G92A here?
A: Its value is ≤ -4.2.

Q: Which “polymerase ribozyme fitness (log ratio)” value does the source give for A49C C76G A121U here?
A: The value was ≤ -4.2.

Q: With A49C C51G as the variant, how does the “polymerase ribozyme fitness (log ratio)” value read?
A: The value was -4.14.

Q: With A49U U61A C95A A107G as the variant, how does the “polymerase ribozyme fitness (log ratio)” value read?
A: Its value is ≤ -4.2.

Q: For A49U C75G C93U, which “polymerase ribozyme fitness (log ratio)” value is on record?
A: Its value is ≤ -4.2.

Q: Which “polymerase ribozyme fitness (log ratio)” value does the source give for A49C C51U U53A G140U G152A here?
A: The value was ≤ -4.2.

Q: For A49C G86U U111G U139A U144G, which “polymerase ribozyme fitness (log ratio)” value is on record?
A: The value was ≤ -4.2.

Q: With A49G C57G U77G G94C C132U G136C U145G as the variant, how does the “polymerase ribozyme fitness (log ratio)” value read?
A: The value was ≤ -4.2.

Q: Which “polymerase ribozyme fitness (log ratio)” value does the source give for A49C A52G C85U U101G U127G U144G here?
A: Its value is ≤ -4.2.

Q: With A49G A91G A142C as the variant, how does the “polymerase ribozyme fitness (log ratio)” value read?
A: Its value is -3.71.

Q: With A49C C54U U78G C79U G83U G143U as the variant, how does the “polymerase ribozyme fitness (log ratio)” value read?
A: The value was ≤ -4.2.

Q: Which “polymerase ribozyme fitness (log ratio)” value does the source give for A49G C51U C75U C93A here?
A: Its value is ≤ -4.2.

Q: With G50A A120G A122U A150U as the variant, how does the “polymerase ribozyme fitness (log ratio)” value read?
A: Its value is -2.03.

Q: Which “polymerase ribozyme fitness (log ratio)” value does the source give for G48U U56A C87G U90C here?
A: Its value is -4.07.

Q: For A49C A91U C95A A107U, which “polymerase ribozyme fitness (log ratio)” value is on record?
A: The value was ≤ -4.2.

Q: Which “polymerase ribozyme fitness (log ratio)” value does the source give for A49G C51G U78C C96G here?
A: Its value is -4.14.

Q: With A49G C57U G143C U145A as the variant, how does the “polymerase ribozyme fitness (log ratio)” value read?
A: Its value is ≤ -4.2.

Q: With A49C C57U G74U U90A C93G C95U C103G A138C as the variant, how does the “polymerase ribozyme fitness (log ratio)” value read?
A: Its value is ≤ -4.2.

Q: Which “polymerase ribozyme fitness (log ratio)” value does the source give for G50A A52U U78C C116A C149G here?
A: Its value is ≤ -4.2.

Q: For A49U U55G G58A C123A G126U U148A, which “polymerase ribozyme fitness (log ratio)” value is on record?
A: The value was ≤ -4.2.

Q: For A49G C93A U134A U146G, which “polymerase ribozyme fitness (log ratio)” value is on record?
A: Its value is ≤ -4.2.

Q: With A49C U55A A66U C72A C85U as the variant, how does the “polymerase ribozyme fitness (log ratio)” value read?
A: Its value is ≤ -4.2.

Q: With A49C C87A A91U G141U G152U as the variant, how does the “polymerase ribozyme fitness (log ratio)” value read?
A: The value was ≤ -4.2.

Q: Which “polymerase ribozyme fitness (log ratio)” value does the source give for A49U G88A A113C G140A here?
A: Its value is ≤ -4.2.

Q: With A49C C54U A91G C96G G141A as the variant, how does the “polymerase ribozyme fitness (log ratio)” value read?
A: Its value is ≤ -4.2.

Q: Which “polymerase ribozyme fitness (log ratio)” value does the source give for A49U U55A U56G here?
A: The value was -1.76.

Q: For A49G C76A U102A U111C A120C U144A, which “polymerase ribozyme fitness (log ratio)” value is on record?
A: The value was ≤ -4.2.

Q: Which “polymerase ribozyme fitness (log ratio)” value does the source give for A49C U55A U101A C103U here?
A: Its value is ≤ -4.2.

Q: Which “polymerase ribozyme fitness (log ratio)” value does the source give for A49C U53A G88C G141C here?
A: The value was ≤ -4.2.

Q: For A49C A52U G84A C105U G124U, which “polymerase ribozyme fitness (log ratio)” value is on record?
A: Its value is ≤ -4.2.

Q: For A49C C87A C114U A150G, which “polymerase ribozyme fitness (log ratio)” value is on record?
A: Its value is ≤ -4.2.

Q: For A49C A52U C85A A91G C95G G133C, which “polymerase ribozyme fitness (log ratio)” value is on record?
A: Its value is ≤ -4.2.
